# This is one part of the list.
# B1: Pwp3 (Candida glabrata) (protein)
# chain: MGSSHHHHHHSSGLVPRGSHMASKNPVDFTTVCQFPDNFSKKPGFLATTARLGLWITGNSYKELLNYPGTFTLTTQQASTTTPNIQLRGTDLFTTIYGLTVYPLYLLVELQGYFVPTQSGMYTFSLTGSDDAAIIFIGNPSTFPCDAFKTWPQATANDITVTDSINPSRTLYMVKGVAYPLRIAYYNGLGNGVLNAAFTDPSGTKRTDWNGYIWQYDQCSTCTYK
# What was measured:
# Test in all cases: glycan array binding signal (z-score within array); higher = stronger binding
# Details in all cases: glycan notation: IUPAC condensed, linker removed
# [1] = target: Fuc(a1-2)[GalNAc(a1-3)]Gal(b1-3)GlcNAc(b1-6)GalNAc
# How it was run: (§1)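 Arrays were curated from the Consortium for Functional Glycomics database, 3228 in total, and kept only where the protein sequence was available. Binding is expressed as a within-array Z-score. This score was averaged across arrays of the same protein sequence at different concentrations or buffers and across linkers, and negative values can be read as non-binding.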
# [2] = target: Fuc(a1-2)[GalNAc(a1-3)]Gal(b1-4)Glc
# How it was run: as §1
# [3] = target: Fuc(a1-2)[GalNAc(a1-3)]Gal(b1-4)GlcNAc
# How it was run: as §1
# [4] = target: Fuc(a1-2)[GalNAc(a1-3)]Gal(b1-4)GlcNAc(b1-2)Man
# How it was run: as §1
# [5] = target: Fuc(a1-2)[GalNAc(a1-3)]Gal(b1-4)GlcNAc(b1-2)Man(a1-3)[Fuc(a1-2)[GalNAc(a1-3)]Gal(b1-4)GlcNAc(b1-2)Man(a1-6)]Man(b1-4)GlcNAc(b1-4)GlcNAc
# How it was run: as §1
# [6] = target: Fuc(a1-2)[GalNAc(a1-3)]Gal(b1-4)GlcNAc(b1-2)Man(a1-3)[Fuc(a1-2)[GalNAc(a1-3)]Gal(b1-4)GlcNAc(b1-2)Man(a1-6)]Man(b1-4)GlcNAc(b1-4)[Fuc(a1-6)]GlcNAc
# How it was run: as §1
# [7] = target: Fuc(a1-2)[GalNAc(a1-3)]Gal(b1-4)GlcNAc(b1-3)Gal(b1-4)GlcNAc
# How it was run: as §1
# [8] = target: Fuc(a1-2)[GalNAc(a1-3)]Gal(b1-4)GlcNAc(b1-3)Gal(b1-4)GlcNAc(b1-3)Gal(b1-4)GlcNAc
# How it was run: as §1
# [9] = target: Fuc(a1-2)[GalNAc(a1-3)]Gal(b1-4)GlcNAc(b1-3)GalNAc
# How it was run: as §1
# [10] = target: Fuc(a1-2)[GalNAc(a1-3)]Gal(b1-4)GlcNAc(b1-3)[Fuc(a1-2)[GalNAc(a1-3)]Gal(b1-4)GlcNAc(b1-6)]GalNAc
# How it was run: as §1
# [11] = target: Fuc(a1-2)[GalNAc(a1-3)]Gal(b1-4)GlcNAc(b1-6)GalNAc
# How it was run: as §1
# [12] = target: Fuc(a1-2)[GalNAc(a1-3)]Gal(b1-4)[Fuc(a1-3)]GlcNAc
# How it was run: as §1
# [13] = target: Fuc(a1-2)[GalNAc(a1-3)]Gal(b1-4)[Fuc(a1-3)]GlcNAc(b1-3)GalNAc
# How it was run: as §1
# [14] = target: Fuc(a1-2)[GalNAc(a1-4)]Gal(b1-4)GlcNAc
# How it was run: as §1
# [15] = target: Fuc(a1-2)[GalNAc(b1-3)]Gal
# How it was run: as §1
# Fuc(a1-3)GlcNAc = target: Fuc(a1-3)GlcNAc
# How it was run: as §1
# [16] = target: Fuc(a1-3)[Gal(b1-4)]Glc6S
# How it was run: as §1
# [17] = target: Fuc(a1-3)[Gal(b1-4)]GlcNAc
# How it was run: as §1
# [18] = target: Fuc(a1-3)[Gal(b1-4)]GlcNAc(b1-2)Man
# How it was run: as §1
# [19] = target: Fuc(a1-3)[Gal(b1-4)]GlcNAc(b1-2)Man(a1-3)[Fuc(a1-3)[Gal(b1-4)]GlcNAc(b1-2)Man(a1-6)]Man(b1-4)GlcNAc(b1-4)GlcNAc
# How it was run: as §1
# [20] = target: Fuc(a1-3)[Gal(b1-4)]GlcNAc(b1-2)Man(a1-3)[Fuc(a1-3)[Gal(b1-4)]GlcNAc(b1-2)Man(a1-6)]Man(b1-4)GlcNAc(b1-4)[Fuc(a1-6)]GlcNAc
# How it was run: as §1
# [21] = target: Fuc(a1-3)[Gal(b1-4)]GlcNAc(b1-3)Gal(b1-3)[Fuc(a1-4)]GlcNAc
# How it was run: as §1
# [22] = target: Fuc(a1-3)[Gal(b1-4)]GlcNAc(b1-3)Gal(b1-4)[Fuc(a1-3)]GlcNAc
# How it was run: as §1
# [23] = target: Fuc(a1-3)[Gal(b1-4)]GlcNAc(b1-3)Gal(b1-4)[Fuc(a1-3)]GlcNAc(b1-3)Gal(b1-4)[Fuc(a1-3)]GlcNAc
# How it was run: as §1
# [24] = target: Fuc(a1-3)[Gal(b1-4)]GlcNAc(b1-3)GalNAc
# How it was run: as §1
# [25] = target: Fuc(a1-3)[Gal(b1-4)]GlcNAc(b1-6)GalNAc
# How it was run: as §1
# [26] = target: Fuc(a1-3)[Gal(b1-4)]GlcNAc(b1-6)[Gal(b1-3)GlcNAc(b1-3)]Gal(b1-4)Glc
# How it was run: as §1
# [27] = target: Fuc(a1-3)[Gal(b1-4)]GlcNAc6S
# How it was run: as §1
# [28] = target: Fuc(a1-3)[Gal3S(b1-4)]Glc
# How it was run: as §1
# [29] = target: Fuc(a1-3)[Gal3S(b1-4)]GlcNAc
# How it was run: as §1
# [30] = target: Fuc(a1-3)[Gal3S(b1-4)]GlcNAc6S
# How it was run: as §1
# [31] = target: Fuc(a1-3)[GalNAc(b1-4)]GlcNAc
# How it was run: as §1
# [32] = target: Fuc(a1-3)[GalNAc(b1-4)]GlcNAc6S
# How it was run: as §1
# Fuc(a1-4)GlcNAc = target: Fuc(a1-4)GlcNAc
# How it was run: as §1
# Fuc(b1-3)GlcNAc = target: Fuc(b1-3)GlcNAc
# How it was run: as §1
# Gal(a1-2)Gal = target: Gal(a1-2)Gal
# How it was run: as §1
# Gal(a1-3)Gal = target: Gal(a1-3)Gal
# How it was run: as §1
binder,measurement,setting,value
B1,glycan array binding signal (z-score),[1],1.57
same,glycan array binding signal (z-score),[2],-0.522
same,glycan array binding signal (z-score),[3],0.301
same,glycan array binding signal (z-score),[4],-0.236
same,glycan array binding signal (z-score),[5],3.9
same,glycan array binding signal (z-score),[6],-0.387
same,glycan array binding signal (z-score),[7],-0.031
same,glycan array binding signal (z-score),[8],0.245
same,glycan array binding signal (z-score),[9],3.75
same,glycan array binding signal (z-score),[10],-0.186
same,glycan array binding signal (z-score),[11],-0.651
same,glycan array binding signal (z-score),[12],-0.332
same,glycan array binding signal (z-score),[13],2.49
same,glycan array binding signal (z-score),[14],-1.2
same,glycan array binding signal (z-score),[15],-1.01
same,glycan array binding signal (z-score),Fuc(a1-3)GlcNAc,-0.392
same,glycan array binding signal (z-score),[16],5.3
same,glycan array binding signal (z-score),[17],-0.407
same,glycan array binding signal (z-score),[18],-0.319
same,glycan array binding signal (z-score),[19],-0.269
same,glycan array binding signal (z-score),[20],-0.773
same,glycan array binding signal (z-score),[21],-0.801
same,glycan array binding signal (z-score),[22],-0.348
same,glycan array binding signal (z-score),[23],-0.346
same,glycan array binding signal (z-score),[24],-0.732
same,glycan array binding signal (z-score),[25],-0.516
same,glycan array binding signal (z-score),[26],-0.587
same,glycan array binding signal (z-score),[27],0.959
same,glycan array binding signal (z-score),[28],-0.185
same,glycan array binding signal (z-score),[29],-0.35
same,glycan array binding signal (z-score),[30],-0.334
same,glycan array binding signal (z-score),[31],-0.375
same,glycan array binding signal (z-score),[32],-0.5
same,glycan array binding signal (z-score),Fuc(a1-4)GlcNAc,-0.367
same,glycan array binding signal (z-score),Fuc(b1-3)GlcNAc,-0.094
same,glycan array binding signal (z-score),Gal(a1-2)Gal,-0.259
same,glycan array binding signal (z-score),Gal(a1-3)Gal,-0.664

# — the supplement of paper PMC8728848
